Sequences and labels used below:
B1: TPR 5TU (parent)
chain: GGAUCUUCUCGAUCUAACAAAAAAGACAAAUCUGCCACAAAGCUUGAGAGCAUCUUCGGAUGCAGAGGCGGCAGCCUUCGGUGGCGCGAUAGCGCCAACGUUCUCAACUAUGACACGCAAAACGCGUGCUCCGUUGAAUGGAGUUUAUCAUG

This sample is rich in variants without activity. Some results are limits rather than exact numbers.

The results in this text go back to the RNAGym collection of RNA variant scans (doi:10.1073/pnas.2313332121).

In the data set the parent is B1. Nature of the data set: polymerase ribozyme fitness, log enrichment relative to wild type (log ratio); higher = more active; in vitro selection for triplet polymerase activity. Put shortly: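 Only genotypes with ≥10 input reads and ≥1 read per output were kept after Illumina sequencing of input and output libraries. These libraries were PCR-built, transcribed mutants of each subunit of a heterodimeric triplet polymerase ribozyme, each put through one triplicate in vitro selection round with frozen incubation at −7 °C, gel excision of extended constructs, streptavidin-bead capture and RT-PCR. Fitness is a logarithmic ratio of genotype enrichment to wild-type enrichment, from inverse-variance-weighted replicate averages, with the logarithm in base 2.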
As for A17C A28C G68U C85U G126A, the “polymerase ribozyme fitness (log ratio)” value was no more than -4.2.
In the case of C18G C54U U56A A73G A91G, the “polymerase ribozyme fitness (log ratio)” value is -3.27.
On to A17U G58C C93A U127A, for which the “polymerase ribozyme fitness (log ratio)” value is no more than -4.2.
On to A17C A23U U104C, for which the “polymerase ribozyme fitness (log ratio)” value was no more than -4.2.
As for A16U U56A C96A, the “polymerase ribozyme fitness (log ratio)” value is -3.23.
Under A17G U44C U61A stands no more than -4.2; under A17U A52C G80C C93A G94U U101G A142G, no more than -4.2.
Under A17G A39C A40C A73G G94C U134G stands no more than -4.2; under C18G G25U A66G G71A C118A, no more than -4.2; under C18G A39C U45A G88C, no more than -4.2.
Then A16U U33A G42A C93U G140A, with no more than -4.2; and C18G G42U C43A G50A G58U A73U C95U C125G G133A U146C, with no more than -4.2.
As to C18U C36A, the “polymerase ribozyme fitness (log ratio)” value was -4.01.
Under A17U C85A A107G G128U U134A stands no more than -4.2; under A17U C18U A20G C93U A115G, -4.19.
As to A17U G25C, the “polymerase ribozyme fitness (log ratio)” value was -4.13.
Under C18U A142C stands -0.999; under A17U A29C U31A U127G, no more than -4.2; under A17U A26U A41C G62C C87U A107U, no more than -4.2.
For the variant C18G C85A, the “polymerase ribozyme fitness (log ratio)” value was -1.49.
As to C18G C85G, the “polymerase ribozyme fitness (log ratio)” value was -2.28.
Under C18A A21U A52G C54U G92A C103A stands no more than -4.2; under A16U G50A G92A C103G G152A, no more than -4.2.
In the case of C18A A24G A26G C85G G141C U144G, the “polymerase ribozyme fitness (log ratio)” value was no more than -4.2.
As for A16U G80A C132G, the “polymerase ribozyme fitness (log ratio)” value is no more than -4.2.
Take A16U U53A C79G U82G C118U G136C: the “polymerase ribozyme fitness (log ratio)” value is no more than -4.2.
Take A17G A26C U55A C79U G80C A91U A107G: the “polymerase ribozyme fitness (log ratio)” value is no more than -4.2.
Under A17U U146C stands -0.884; under A16U G86A A91U A106G C108U C129A, no more than -4.2; under A17G C76U, -0.119.
With C18A C87U G88C A89G G124C G126A, the “polymerase ribozyme fitness (log ratio)” value was no more than -4.2.
Take C18U C36A G59C C125U: the “polymerase ribozyme fitness (log ratio)” value is no more than -4.2.
For the variant A17U A39G C57G G68U G83U A150G, the “polymerase ribozyme fitness (log ratio)” value was no more than -4.2.
Under A17G C51U U55G C79U G83U C95A C118G U145C stands no more than -4.2; under A16U U31G G50U C75U G84A U148G, no more than -4.2; under A17C C38A A47G G92C, -0.622.
Under C18G A39G A40U G67A U90C A97G C99U stands no more than -4.2; under C18G A60C U90G G92C C96A, no more than -4.2; under C18G A21U A28U A41C G141C, no more than -4.2.
Under A16U C57A stands -1.96; under A16U G50A U55G C95G, no more than -4.2.
In the case of A17G C35A A40C G67U C96A C129G, the “polymerase ribozyme fitness (log ratio)” value was no more than -4.2.
Regarding A17U A23G C87A C99U A138U, the “polymerase ribozyme fitness (log ratio)” value is no more than -4.2.
As for C18A U55C C76G G81A C87U G140C U151A, the “polymerase ribozyme fitness (log ratio)” value was no more than -4.2.
Turning to A17U C85A C96G, the “polymerase ribozyme fitness (log ratio)” value is -2.34.
Then A17G A26G U55A A73G C93A G100C C131A G133C U148A, with no more than -4.2; and C18U C54U C93G A119C, with no more than -4.2.
On to A17U C57G C69A, for which the “polymerase ribozyme fitness (log ratio)” value is -2.58.
Turning to A17U C35A C69G U78G G84A A91G C103A, the “polymerase ribozyme fitness (log ratio)” value is no more than -4.2.
Under C18U A91G stands -3.63.
Under A17U C36G U61A C76G C103U A119U G141C stands no more than -4.2; under A17U G83A C96U C125U C129U, -1.96; under C18U C57U G58U C75G C85A U148C, no more than -4.2.
With A17G A28U G71A A121G, the “polymerase ribozyme fitness (log ratio)” value was no more than -4.2.
On to A17G U33G C79G G84A U134G, for which the “polymerase ribozyme fitness (log ratio)” value was no more than -4.2.
Turning to A17U A22U A24U C51G U56A A91G A97G A110U C116A, the “polymerase ribozyme fitness (log ratio)” value is no more than -4.2.
In the case of C18G U56A, the “polymerase ribozyme fitness (log ratio)” value is -0.693.
Regarding C18U C51U C96A G126C C132U, the “polymerase ribozyme fitness (log ratio)” value is -2.04.
Under C18G A28G A52G stands no more than -4.2; under A16U U45G G94A A107G C118A A150G, no more than -4.2.
A17C C36U G42C C76G G94U U134C U146C: the “polymerase ribozyme fitness (log ratio)” value was no more than -4.2.
Under A17C A26G A41C C54A C72U C87A G100C G143U stands no more than -4.2.
With A17G A29C C93G C95G A137U A138G, the “polymerase ribozyme fitness (log ratio)” value is no more than -4.2.
Under C18G A52G G71A C99G stands no more than -4.2.
Then A17U A23U A37G C43U U56A G94C A119C G141A, with no more than -4.2; and C18G U53A G88U U90A G92C C93G A97G G126A C129G, with no more than -4.2.
With C18G A20G C32G G65C G67A G83A U139A, the “polymerase ribozyme fitness (log ratio)” value is no more than -4.2.
Under A17G A23C A97U C114U stands no more than -4.2; under A17C C75U U127A A147G, no more than -4.2.
Then A17C C27A C103G A107G C116A G143U, with no more than -4.2; and A17G A39U C43U, with no more than -4.2; and A17G C85G G126U U127G G141C, with no more than -4.2.
As to A17C A23U G59U G84A U90C U151A, the “polymerase ribozyme fitness (log ratio)” value is no more than -4.2.
Under C18U A41U C87G C103G C105G G128A stands no more than -4.2.
Then A17G A23U G92A C118U, with no more than -4.2.
Then C18A C79G C85G U102G C149A, with no more than -4.2.
For the variant A16U G50A A52C U53G U56A C75U C99G C103A, the “polymerase ribozyme fitness (log ratio)” value was no more than -4.2.
Under C18G C93U A98G A120C G141U stands 0.17; under A16U U33G G80C U90C C93G A120U A142U, no more than -4.2; under C18G A26U G92U G128C, no more than -4.2.
With A17U C96A G140C A142G, the “polymerase ribozyme fitness (log ratio)” value is no more than -4.2.
For the variant C18G A30U C32A G83U U139G G141U U144A, the “polymerase ribozyme fitness (log ratio)” value is no more than -4.2.
On to A17G C99U, for which the “polymerase ribozyme fitness (log ratio)” value was -0.271.
